Reference: PubChem BioAssay AID488969 (Vanderbilt High Throughput Screening Facility, 2010)
In all, about 110,000 compounds were measured (“z-score”: median about -0.1, highest 2% from about 2 on). Some of the results follow.

biological target: Metabotropic glutamate receptor 8 (Rattus norvegicus) (UniProt P70579); assay: rat mGluR8 modulators via GIRK flux, primary screen, cell-based, thallium flux, HTS (AID 488969); settings: HEK293 rat mGluR8, GIRK (G protein-gated inwardly rectifying potassium channel) thallium flux, FluoZin2; at 10 µM; stronger effect = higher value; submaximal glutamate (EC20) added with thallium
Sequence of UniProt P70579 (P70579 whole entry, looked up): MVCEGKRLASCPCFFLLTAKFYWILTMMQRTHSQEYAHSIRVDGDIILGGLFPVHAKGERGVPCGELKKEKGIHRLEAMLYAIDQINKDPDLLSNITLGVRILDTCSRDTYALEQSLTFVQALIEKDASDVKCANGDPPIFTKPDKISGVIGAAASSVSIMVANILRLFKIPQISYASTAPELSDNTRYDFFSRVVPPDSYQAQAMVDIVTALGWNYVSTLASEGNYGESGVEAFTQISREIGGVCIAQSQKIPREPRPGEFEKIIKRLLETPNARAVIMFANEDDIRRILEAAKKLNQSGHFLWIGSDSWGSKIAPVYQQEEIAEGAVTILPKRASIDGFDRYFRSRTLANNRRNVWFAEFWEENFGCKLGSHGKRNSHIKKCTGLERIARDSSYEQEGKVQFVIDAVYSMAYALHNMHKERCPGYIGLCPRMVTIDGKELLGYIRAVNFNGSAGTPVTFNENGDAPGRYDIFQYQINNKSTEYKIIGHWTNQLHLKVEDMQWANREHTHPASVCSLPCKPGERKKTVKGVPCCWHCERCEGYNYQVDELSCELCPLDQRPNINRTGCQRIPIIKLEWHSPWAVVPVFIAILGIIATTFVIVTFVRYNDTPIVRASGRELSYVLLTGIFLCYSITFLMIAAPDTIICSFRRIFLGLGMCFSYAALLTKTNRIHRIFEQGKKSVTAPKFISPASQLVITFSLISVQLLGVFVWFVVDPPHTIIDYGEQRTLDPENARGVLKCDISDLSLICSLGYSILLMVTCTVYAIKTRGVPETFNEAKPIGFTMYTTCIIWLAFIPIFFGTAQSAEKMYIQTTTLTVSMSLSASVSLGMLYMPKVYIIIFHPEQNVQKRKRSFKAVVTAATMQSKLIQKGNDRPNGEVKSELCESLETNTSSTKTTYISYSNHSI

SMILES	z-score
O=C(N1CCCCC1)C12CC3CC(CC(C3)C1)C2	0.221
O=C(NC1CCCCCCC1)C1c2ccccc2C(=O)N1Cc1cccs1 (stereo not given)	0.201
Cn1cc(S(=O)(=O)N2CCC(Cc3ccccc3)CC2)c(=O)n(C)c1=O	0.186
CCOC(=O)C1=C(C)Nc2ncnn2C1c1cc(OC)ccc1OC (stereo not given)	0.212
COc1ccc(C(CNC(=O)Cc2cc(OC)c(OC)c(OC)c2)N2CCCC2)cc1 (stereo not given)	0.489
CCN(CC)C(=O)CSc1nc(-c2cccs2)cc(-c2cccs2)c1C#N	0.0765
COc1cccc(NC(=O)C(=O)N/N=C/c2cc(C)n(-c3ccc(Cl)c(Cl)c3)c2C)c1	-0.064
Cc1ccc2occ(CN3CCN(c4ccccc4)CC3)c(=O)c2c1	-1.51
CCCC(=O)OCCNc1cc(Sc2nccn2C)c2nonc2c1[N+](=O)[O-]	-0.299
O=C(COc1ccc(Cl)cc1Cl)NCC(=O)N/N=C/c1c[nH]c2ccccc12	-0.355
CCCCNC(C(=O)Nc1ccc([N+](=O)[O-])cc1Br)c1ccccc1 (stereo not given)	-0.247
O=C(c1ccc(Cl)cc1)N(Cc1cccs1)C1CCS(=O)(=O)C1 (stereo not given)	-0.691
Cc1ccc2nc3c(nc2c1)-c1ccccc1C3=O	0.159
Cc1ccc(S(=O)(=O)Cn2nnnc2CN(Cc2ccco2)CC2CCCO2)cc1 (stereo not given)	0.699
Cc1cc(C(=O)COC(=O)c2ccc[nH]c2=O)c(C)n1-c1ccc(F)cc1	-0.134
COCCn1c(=O)[nH]c2cc(C(=O)NCCN3CCN(c4cccc(Cl)c4)CC3)ccc2c1=O	-0.723
COc1ccc(CC(=O)NC(=S)Nc2ccc(S(=O)(=O)NC(C)(C)C)cc2)cc1	0.142
Cc1occc1C(=O)Nc1cc(C(F)(F)F)ccc1Cl	-0.0378
COc1ccc(Cl)cc1C(=O)NNC(=S)NC(=O)c1cc(-c2ccc(Cl)cc2)nc2ccccc12	0.219
Cc1nn(-c2ccccc2)c(C)c1/C=N/n1c(-c2ccc(Cl)cc2)n[nH]c1=S	0.338
COC(=O)c1sc(NC(=O)CSc2nnc(Cn3nnc4ccccc43)n2C)nc1C	0.0796
Cc1ccn2c(C(=O)CSc3ccccc3Cl)c(C)nc2c1	-0.0109
CC1Cc2ccccc2N1C(=O)C12CCC(C)(C(=O)C1)C2(C)C (stereo not given)	-0.11
COc1cccc(OC)c1OCCOCCn1cnc2ccccc2c1=O	-0.56
O=C(CSc1n[nH]c(-c2ccccc2)n1)Nc1ncc(Br)cc1Br	-0.296
COc1ccc(NC(=O)CC2(Cc3ccccc3)CCOC(C)(C)C2)cc1 (stereo not given)	-0.323
CCOC(=O)CSc1nc(C)nc2c1sc1nc(C)c(C(C)=O)c(-c3ccc(OC)cc3)c12	1.29
CCC(=O)Nc1nc2c(s1)COc1ccccc1-2	0.0756

SMILES	z-score
Cc1cc2nnc(SC(C)C)n2c2ccccc12	-1.9
Cc1cc([N+](=O)[O-])ccc1NC1CCCC1	-0.214
COc1ccc(N2CCN(c3nc4ccccn4c(=O)c3C=O)CC2)cc1	-0.125
CC1CCCN(C(=O)CCS(=O)(=O)Cc2ccccc2)C1 (stereo not given)	-0.127
CC(C)OCCCN1CN(S(=O)(=O)c2cccc(Cl)c2)c2nc3ccccc3nc21	-0.386
CC(=O)c1nn(-c2cccc(Br)c2)cc1C(=O)c1ccc(C)cc1	0.00622
CCOC(=O)CNC(=O)c1cccnc1	0.114
O=c1[nH]cnc2scc(-c3ccc(F)cc3)c12	-0.0775
COc1ccc(-c2noc(CSc3nc(N)c(-c4ccccc4)c(=O)[nH]3)n2)cc1OC	0.24
C=CCNc1nnc(-c2ccncc2)s1	-0.222
CCn1c(C(C)NC(=O)c2ccc(OC)c(OC)c2)nc2ccccc21 (stereo not given)	0.719
Cn1cccc1CNC(=O)Nc1ccc(Cl)c(Cl)c1	0.356
CCC(=O)Nc1nonc1-c1nc2ccccc2n1Cc1cccc2ccccc12	0.857
CSc1ccccc1C(=O)Nc1cccc(C)c1	-0.792
COc1ccc(N2C(=O)C3C4C=CC(CC4)C3C2=O)c([N+](=O)[O-])c1 (stereo not given)	-0.215
CCN(C(=O)COC(=O)c1cc(-c2ccc3cc(OC)ccc3c2)nc2ccccc12)C1CCS(=O)(=O)C1 (stereo not given)	-0.33
Cc1ccc(/C=N/n2c(C)cc(C)c(C#N)c2=O)cc1	-0.313
COc1cc2c(cc1NC(=O)/C=C/c1ccccc1)oc1ccccc12	-0.194
CC(C)C(OC(=O)c1nsc(Cl)c1Cl)C(=O)NCc1ccc2c(c1)OCO2 (stereo not given)	-0.236
CC1CN(S(=O)(=O)c2ccc(C(=O)Nc3ccc(S(=O)(=O)Nc4nccs4)cc3)cc2)CC(C)O1 (stereo not given)	-0.166
N#Cc1c(-c2ccccc2)cc(C2CC2)nc1SCC(=O)c1cccs1	0.168
O=C(C(Cc1ccccc1)N1C(=O)C2C3C=CC(C3)C2C1=O)N1CCCCCC1 (stereo not given)	0.597
COc1ccc(-c2[nH]c(-c3cc(OC)c4c(c3)OCO4)nc2-c2ccccc2)cc1	-0.0302
Clc1ccc(-c2c[n+](Cc3cccc(Cl)c3)c3n2CCC3)cc1	-0.344
CSC1=N/C(=C\c2ccc(C)cc2)C(=O)S1	-0.344
COc1cc2c(C(=O)NCc3ccc4c(c3)OCO4)cn(CC(C)C)c(=O)c2cc1OC	-0.451
O=C(CSc1nnc2c(n1)[nH]c1ccc(F)cc12)OCc1ccccc1	0.106
